# The campaign covered roughly 120,000 compounds. About 5,300 (4.4%) were called active. The shares of active, inactive and inconclusive entries below differ from those in the screen. Calls come from the whole dose curve; as a rule, active = well fitted inhibition curve with a large enough effect; inconclusive = small, poorly fitted or top-dose-only effect; inactive = no such curve, though single readings can be large or run the other way. Where the call is inconclusive, the potency comes from a doubtful curve fit.
# Experiment: qHTS Primary assay for Inhibitors of Plasmodium falciparum Dd2 growth in vitro; note: nearly all actives have a fitted effect of over 65% in size;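 for activity, negative = inhibition: plate controls were DMSO vehicle for no effect and reference drug for full effect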
# Conditions: P. falciparum Dd2 growth, SYBR Green, 72 h; activity, negative = inhibition: at 28.9 µM (top of the series) unless noted; series mostly up to 28.9 µM
# In short: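 Readout: SYBR Green fluorescence, 485 nm excitation, 535 nm emission, after ~16 h lysis at 37C. Before that, Dd2-infected red cells (2.5% hematocrit) grew 72 h with compound, 29 uM top final concentration.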
# Potency is the fitted concentration of half-maximal effect; tags give direction and shape of the fitted curve.
Structure (SMILES),Potency,"activity, negative = inhibition",outcome
COC(=O)[C@@H]1Cc2ncn(C(C)C)c2CN1S(=O)(=O)c1ccc([N+](=O)[O-])cc1,"inconclusive: 11.2 µM [inhibitor, partial curve, poor fit]",,
Cc1ccc(CN2CCCCCCN(C)C(=O)[C@@H]3CCC[C@@H]32)s1,active: 6.31 µM,,
CC(C)OCCNc1nccc(C2(c3ccccc3Cl)CCNCC2)n1,"inconclusive: 5.01 µM [inhibitor, partial curve]",,
CC1CCN(C(=O)c2ccccc2OCC2CCCNC2)CC1 (centres undefined),,inactive: -17.9%,
C[S+](=O)([O-])N1CCC(Cn2ccc3c(N4CCOCC4)nc(-c4cccc(C(N)=O)c4)cc32)CC1,"inconclusive: 11.2 µM [inhibitor, single point]",,
COc1ccc(-n2c(SCC(=O)NCc3ccc(Cl)cc3)nc3ccsc3c2=O)cc1,"inconclusive: 5.62 µM [inhibitor, single point]",,
Cc1cc(C)cc(C(=O)N2CCN(c3cc(-c4ccc(Cl)cc4)[nH]n3)CC2)c1,,inactive: -4.64%,
Cc1nc(-c2ccccc2)cc([C@H]2CN3CC[C@H]2C[C@@H]3CNS(=O)(=O)Cc2ccccc2)n1,"inconclusive: 5.62 µM [inhibitor, partial curve, poor fit]",,
O=C(Nc1cccc(C(F)(F)F)c1)N1C[C@@H](F)[C@@H](OCc2nc3ccccc3[nH]2)C1,"inconclusive: 10 µM [inhibitor, single point]",,
CCCSCCCNC(=O)c1ccc(C)c(NC(=O)c2nsc3ccccc23)c1,"inconclusive: 17.8 µM [inhibitor, single point]",,
CCOc1ccc(Nc2ncnc3c2c(-c2ccccc2)cn3-c2cccc(C)c2)cc1,"inconclusive: 17.8 µM [inhibitor, single point]",,
CCOc1ccc(CN2CCN(C/C=C/c3ccccc3OC)CC2CCO)cc1 (centres undefined),"inconclusive: 11.2 µM [inhibitor, single point]",,
COC[C@@H]1CN(C(=O)CC2=CCCCC2)C[C@H]1c1ccccn1,,,inactive
O=C(NCC1CCN(c2cc(-c3ccc(Cl)cc3)[nH]n2)CC1)c1ccc2nc[nH]c2c1,"inconclusive: 1.26 µM [inhibitor, partial curve, poor fit]",,
COc1cc(NC(=O)c2cccc(Cl)c2Cl)ccc1NC(=O)c1cc2ccccc2o1,"inconclusive: 17.8 µM [inhibitor, single point]",,
CCC(=O)N1CCc2cc(Br)cc(S(=O)(=O)CCC(=O)Nc3cccc(Cl)c3)c21,active: 7.08 µM,,
CCCn1c2ccc(F)cc2c2nnc(SCCN3CCCCC3)nc21,active: 7.94 µM,,
CCCc1cnc2c(c1SCC(=O)Nc1ccccc1OCC)c(=O)n(C)c(=O)n2C,,inactive: 1.61%,
O=C(c1cccnc1)N1CCC(OC2CCN(c3ccccc3)CC2)CC1,"inconclusive: 11.2 µM [inhibitor, partial curve, poor fit]",,
Cc1cc(C)nc(N2CC3(COCC(=O)N(Cc4cccc(OC(F)(F)F)c4)C3)C2)n1,"inconclusive: 6.31 µM [inhibitor, full curve, poor fit]",,
CC(C)(C)C(=O)N1CCc2nc(C3CC3)nc(-c3ccc(Cl)cc3)c2C1,"inconclusive: 1 µM [inhibitor, partial curve]",,
Cc1cc(S(=O)(=O)N2CCC(Oc3ncccc3C(=O)N3CCOCC3)C2)ccc1F (centres undefined),"inconclusive: 3.98 µM [inhibitor, partial curve, poor fit]",,

Structure (SMILES),Potency,"activity, negative = inhibition",outcome
COc1ccccc1CNC(=O)C1CCCN(Cc2cccnc2)CCC(=O)NCC1 (centres undefined),,inactive: -11.1%,
COc1ccc(C(=O)Nc2ccc3c(c2)CN(CCc2ccccc2)C(=O)C(C)O3)cc1OC (centres undefined),"inconclusive: 2.82 µM [inhibitor, single point]",,
CCOc1ccc(OCC)c(NC(=O)c2cc(S(=O)(=O)N3CCc4ccccc43)cn2C)c1,"inconclusive: 12.6 µM [inhibitor, single point]",,
CN(C)c1cccc(C(=O)Nc2ccc3c(N4CCOCC4)ncnc3c2)c1,,inactive: -22.2%,
COc1cccc(NC(=O)c2cccc3c(=O)c4c([nH]c23)CCCC4)c1,active: 0.891 µM,,
CCCOc1ccc(C2c3c(-c4ccccc4O)n[nH]c3C(=O)N2CCc2ccccc2)cc1OCC (centres undefined),active: 4.47 µM,,
CN(Cc1ccccc1)Cc1cn(C[C@H]2C[C@@H]3CCN2C[C@@H]3C(=O)N2CCOCC2)nn1,,inactive: 4.58%,
CN(C)S(=O)(=O)N1CCOCCNC(=O)[C@@H]2CCC[C@@H]21,,inactive: 4.99%,
CC(=O)c1ccc(N2CCN(S(=O)(=O)c3cc4[nH]c(=O)c(=O)[nH]c4cc3C)CC2)cc1,"inconclusive: 10 µM [inhibitor, single point]",,
CCC1(N2CCN(S(=O)(=O)c3ccc(F)cc3F)CC2)CCN(C(=O)C(C)C)C1 (centres undefined),"inconclusive: 11.2 µM [inhibitor, single point]",,
COCc1cc(=O)n(CC(=O)Nc2cccc(C(C)=O)c2)c(N2CCOCC2)n1,"inconclusive: 3.55 µM [inhibitor, single point]",,
COc1ccc(C(=O)Nc2ccc(-c3noc([C@@H]4CCCN4Cc4ccc(OC(F)(F)F)cc4)n3)cn2)cc1,"inconclusive: 11.2 µM [inhibitor, partial curve, poor fit]",,
COc1ccccc1CNC(=O)C(=O)NCC(c1cccs1)S(=O)(=O)c1ccccc1 (centres undefined),"inconclusive: 17.8 µM [inhibitor, single point]",,
O=C1CN(C(=O)c2cnc3ccccn3c2=O)CCN1Cc1ccc(F)cc1,,inactive: -10.2%,
Cc1ccc(CN2CCOC[C@H]2c2ncc(-c3cccc(F)c3)[nH]2)cc1,"inconclusive: 7.94 µM [inhibitor, partial curve, poor fit]",,
O=C(C1CCCC1)N1CCn2c(nn(-c3ccncc3)c2=O)C1,,inactive: -7.35% [at 44.1 µM],
COc1cc(=O)n2c(c1C(=O)Nc1ccc(F)c(Cl)c1)CCCC2,,inactive: 51%,
CCCCOc1ccc(C2c3c(oc4ccc(C)cc4c3=O)C(=O)N2CCCN(C)C)cc1OCC (centres undefined),"inconclusive: 17.8 µM [inhibitor, single point]",,
O=C(NCc1cccnc1)c1ccc2c(c1)N(C(=O)c1ccc(F)cc1)CC2,,inactive: -9.3%,
CC1CCC(C(=O)Nc2ccc(-c3nnc4n3CCCC4)cc2)CC1 (centres undefined),"inconclusive: 14.1 µM [inhibitor, partial curve, poor fit]",,
COc1ccc(-c2cc3c(cn2)CN(Cc2cccnc2)CCN3)cc1OC,,inactive: -0.272% [at 44.1 µM],
CCOC(=O)N1CCc2c(sc3c2C(=O)NC(c2ccc(N(C)C)cc2)N3)C1 (centres undefined),"inconclusive: 14.1 µM [inhibitor, partial curve, poor fit]",,

Structure (SMILES),Potency,"activity, negative = inhibition",outcome
Cc1cnc(C(=O)N[C@@H]2CCC[C@@H]2C(=O)NCc2ccc3c(c2)OCO3)cn1,"inconclusive: 0.316 µM [inhibitor, full curve]",,
O=C1CCN(C(=O)CC2CCCCC2)CCCC(c2nc(-c3cccnc3)no2)CCN1 (centres undefined),"inconclusive: 11.2 µM [inhibitor, single point]",,
O=C(NC1CCCC1)c1noc(-c2ccc[nH]c2=O)n1,"inconclusive: 6.31 µM [inhibitor, partial curve, poor fit]",,
CCCCCC(=O)N1CC[C@@H](CC(=O)N(C)CC#N)[C@@H](CC)C1,,inactive: -6.02% [at 44.1 µM],
CCc1cccc(NC(=O)Cn2c(C(=O)OC)cc3sc(Cl)cc32)c1,"inconclusive: 17.8 µM [inhibitor, single point]",,
CC(C)(O)C#Cc1ccc(CN2CCC(CO)(CCCc3ccccc3)CC2)cc1,"inconclusive: 17.8 µM [inhibitor, single point]",,
CN(C)C(=O)c1cccc(-c2cc(F)c3nc(N)sc3c2)c1,"inconclusive: 20 µM [inhibitor, single point]",,
CCCN1CCN(CCCNC(=O)c2cc3c(=O)n(CC)c4ccccc4c3s2)CC1,"inconclusive: 17.8 µM [inhibitor, single point]",,
COCCNc1ncccc1-c1noc([C@@H]2CCCN2Cc2ccco2)n1,"inconclusive: 31.6 µM [inhibitor, single point]",,
COc1ccc(C2(c3nc(C4CC(=O)N(c5ccc(C)cc5)C4)no3)CC2)cc1 (centres undefined),"inconclusive: 12.6 µM [inhibitor, single point]",,
CCCCN(CCCNC(=O)c1cc(Nc2cccc(SC)c2)nc2ccccc12)Cc1ccccc1,"inconclusive: 3.98 µM [inhibitor, single point]",,
COc1ccc(Cn2c(C3CCN(C(=O)c4cccc(F)c4)CC3)n[nH]c2=O)cc1,,inactive: 10.1%,
CC(=O)c1ccc(NC(=O)O[C@@H]2CO[C@H]3[C@@H]2OC[C@@H]3NC(=O)NCc2ccccc2)cc1,,inactive: -24.6%,
CCCN(C)c1nccnc1OC1CCN(C(=O)c2ccoc2)C1 (centres undefined),"inconclusive: 17.8 µM [inhibitor, single point]",,
COCCN(CCOC)S(=O)(=O)c1ccc(C(=O)Nc2sc3c(c2C(=O)OC)CCN(C)C3)cc1,active: 11.2 µM,,
CCN(CC)S(=O)(=O)c1cccc(C(=O)Nc2ccccc2C(=O)Nc2ccc(Cl)cc2)c1,active: 10 µM,,
O=C1NCCCCCCN(Cc2cccc(F)c2)[C@H]2CCC[C@@H]12,"inconclusive: 5.01 µM [inhibitor, partial curve, poor fit]",,
O=C(c1ccc(=O)[nH]n1)N1CCCC(c2ccn[nH]2)C1 (centres undefined),,inactive: 7.79%,
O=C(Nc1ccccn1)[C@@H]1C[C@@H](c2ccc(F)cc2)N([S+](=O)([O-])c2ccccc2)C1,"inconclusive: 5.62 µM [inhibitor, single point]",,
Nc1ncccc1CN1CCC(CO)(CN2CCCC2)CC1,"inconclusive: 7.94 µM [inhibitor, partial curve, poor fit]",,
